Data: paper PMC8424950
These are yes or no findings as the source states them, for the method shown. For some assays here: In cells and extracts the contact can be indirect. Some entries that bind do so weakly or less than the wild type. For some assays here: Where a sequence is shown, tags or fusion partners need not be part of it.

Chains of the proteins cited; added tags and fusions are not shown. Lines headed by an entry give the natural chain unless they say otherwise; changes in a name come on top.
UniProt Q9H3P7: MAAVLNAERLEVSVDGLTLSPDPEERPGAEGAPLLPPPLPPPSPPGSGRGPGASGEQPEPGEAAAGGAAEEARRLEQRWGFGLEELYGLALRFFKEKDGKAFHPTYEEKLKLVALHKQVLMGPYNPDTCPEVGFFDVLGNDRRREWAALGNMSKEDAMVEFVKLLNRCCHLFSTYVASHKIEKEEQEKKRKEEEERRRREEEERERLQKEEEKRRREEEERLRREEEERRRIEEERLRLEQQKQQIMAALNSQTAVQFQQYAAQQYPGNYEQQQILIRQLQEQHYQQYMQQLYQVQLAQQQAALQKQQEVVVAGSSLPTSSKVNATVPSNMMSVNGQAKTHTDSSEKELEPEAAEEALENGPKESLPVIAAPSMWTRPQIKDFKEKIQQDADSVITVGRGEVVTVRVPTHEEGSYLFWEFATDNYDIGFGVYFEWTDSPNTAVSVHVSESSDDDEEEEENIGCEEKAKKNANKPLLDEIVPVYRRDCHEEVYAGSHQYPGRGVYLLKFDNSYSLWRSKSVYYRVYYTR
UniProt Q9NP61: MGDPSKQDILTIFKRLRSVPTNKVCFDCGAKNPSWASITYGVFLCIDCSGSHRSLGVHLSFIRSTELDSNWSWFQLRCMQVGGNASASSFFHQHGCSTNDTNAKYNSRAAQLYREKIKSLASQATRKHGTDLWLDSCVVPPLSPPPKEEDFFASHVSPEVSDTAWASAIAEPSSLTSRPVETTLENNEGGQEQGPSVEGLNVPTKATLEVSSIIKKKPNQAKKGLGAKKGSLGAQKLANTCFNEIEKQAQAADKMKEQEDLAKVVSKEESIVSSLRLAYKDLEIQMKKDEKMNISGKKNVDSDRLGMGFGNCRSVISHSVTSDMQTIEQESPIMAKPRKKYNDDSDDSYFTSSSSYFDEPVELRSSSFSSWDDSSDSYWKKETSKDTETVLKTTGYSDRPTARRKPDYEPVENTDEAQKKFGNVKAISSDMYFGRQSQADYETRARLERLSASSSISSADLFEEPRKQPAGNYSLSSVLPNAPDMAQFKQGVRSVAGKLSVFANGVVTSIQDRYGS
UniProt Q8N6T3: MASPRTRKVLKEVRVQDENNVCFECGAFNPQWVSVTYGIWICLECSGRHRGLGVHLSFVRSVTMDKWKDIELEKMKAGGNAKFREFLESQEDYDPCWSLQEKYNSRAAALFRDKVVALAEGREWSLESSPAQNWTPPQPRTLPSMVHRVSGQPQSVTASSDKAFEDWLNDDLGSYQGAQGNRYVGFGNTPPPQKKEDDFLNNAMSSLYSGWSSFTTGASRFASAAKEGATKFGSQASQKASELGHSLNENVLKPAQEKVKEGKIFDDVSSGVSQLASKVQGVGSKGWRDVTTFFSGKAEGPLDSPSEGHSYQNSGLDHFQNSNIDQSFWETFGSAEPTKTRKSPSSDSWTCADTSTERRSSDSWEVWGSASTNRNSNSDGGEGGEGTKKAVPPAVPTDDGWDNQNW
UniProt P13861: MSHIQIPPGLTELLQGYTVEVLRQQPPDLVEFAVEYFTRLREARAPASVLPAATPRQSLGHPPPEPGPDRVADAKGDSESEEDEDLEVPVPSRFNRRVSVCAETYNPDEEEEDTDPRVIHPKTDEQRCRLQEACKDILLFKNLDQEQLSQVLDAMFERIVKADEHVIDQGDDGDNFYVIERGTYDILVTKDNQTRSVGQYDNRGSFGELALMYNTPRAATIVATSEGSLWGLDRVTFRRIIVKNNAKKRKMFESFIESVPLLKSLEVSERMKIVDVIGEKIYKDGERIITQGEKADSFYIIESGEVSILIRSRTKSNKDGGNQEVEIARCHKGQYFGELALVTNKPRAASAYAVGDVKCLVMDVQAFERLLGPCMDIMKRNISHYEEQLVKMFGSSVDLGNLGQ
UniProt P84077: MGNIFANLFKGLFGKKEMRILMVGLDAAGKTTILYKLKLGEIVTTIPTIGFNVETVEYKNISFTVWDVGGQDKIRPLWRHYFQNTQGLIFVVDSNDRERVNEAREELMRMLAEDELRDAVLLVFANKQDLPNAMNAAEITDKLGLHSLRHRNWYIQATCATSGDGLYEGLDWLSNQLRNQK
UniProt Q8N6H7: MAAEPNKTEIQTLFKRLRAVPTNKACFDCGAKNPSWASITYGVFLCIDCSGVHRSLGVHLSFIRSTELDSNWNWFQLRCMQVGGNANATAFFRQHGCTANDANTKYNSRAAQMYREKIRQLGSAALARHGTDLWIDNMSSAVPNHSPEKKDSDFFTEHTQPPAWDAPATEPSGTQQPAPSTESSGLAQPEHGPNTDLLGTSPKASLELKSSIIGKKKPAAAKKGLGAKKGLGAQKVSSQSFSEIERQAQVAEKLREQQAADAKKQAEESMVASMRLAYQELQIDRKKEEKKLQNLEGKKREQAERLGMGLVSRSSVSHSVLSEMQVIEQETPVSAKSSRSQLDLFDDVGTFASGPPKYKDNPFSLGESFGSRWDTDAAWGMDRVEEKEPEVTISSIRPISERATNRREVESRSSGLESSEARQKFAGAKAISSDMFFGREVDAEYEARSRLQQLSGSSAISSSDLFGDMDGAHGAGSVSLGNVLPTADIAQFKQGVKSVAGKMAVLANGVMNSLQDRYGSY

Tests used:
[1] = target: T1, KDELR1-Cub-LexA-VP16 (human) (UniProt P24390); assay: two-hybrid; split-ubiquitin membrane yeast two-hybrid (MYTH), NMY51 yeast; KDELR1-Cub-LexA-VP16 bait, NubG-HA preys; growth on QDO plates with X-α-Gal
T1 sequence: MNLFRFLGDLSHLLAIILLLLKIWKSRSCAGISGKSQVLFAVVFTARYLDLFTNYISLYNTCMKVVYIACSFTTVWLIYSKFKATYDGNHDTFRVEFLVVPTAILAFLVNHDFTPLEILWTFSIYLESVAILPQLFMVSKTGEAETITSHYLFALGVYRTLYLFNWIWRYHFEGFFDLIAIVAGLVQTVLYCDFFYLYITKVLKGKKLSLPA

KDELR1-mCherry (human) [2] = target: T2, KDELR1-mCherry (human) (UniProt P24390); assay: co-IP; HeLa co-transfected with KDELR1-mCherry and hGH-GFP-myc or hGH-GFP-myc-KDEL, treated with DSP crosslinker (2 mM) in PBS at 37 °C for 30 min before lysis; anti-RFP agarose beads; western blot
T2 sequence: T1 sequence

KDELR1-mCherry (human) [3] = target: T2, KDELR1-mCherry (human); assay: co-IP; anti-RFP agarose beads, 4 h at 4°C, on lysates (20 mM HEPES pH 7.4, 100 mM NaCl, 2 mM DDM + 0.02% CHS) of HeLa cells with KDELR1-mCherry or endogenously tagged KDELR1-3xFlag-mCherry; western blot; also done with ACBD3-depleted, ACBD3-KO and ACBD3 over-expressing cells
myc-ACBD3 (human) = myc-ACBD3 (human) (UniProt Q9H3P7); assay: co-IP; myc-trap agarose beads on lysates of HeLa co-transfected with KDELR1-mCherry and myc-ACBD3, ARFGAP1-myc or ARFGAP3-myc; western blot
ArfGAP3-myc (human) = ArfGAP3-myc (human) (UniProt Q9NP61); assay: as above
ArfGAP1-myc (human) = ArfGAP1-myc (human) (UniProt Q8N6T3); assay: as above
KDELR1-myc-cYFP (human) = target: T3, KDELR1-myc-cYFP (human) (UniProt P24390); assay: split reporter; split-YFP: nYFP-3xFLAG-ACBD3 and KDELR1-myc-cYFP co-transfected into HeLa for 18 h, confocal microscopy; single plasmids as negative controls
T3 sequence: T1 sequence

PKA-RIIα-EGFP = PKA-RIIα-EGFP (UniProt P13861); assay: co-IP; PKA subunits fused to EGFP expressed in HeLa; ACBD3 detected in the precipitates; beads not named for this experiment (anti-GFP agarose beads are listed in the methods)

| Substance | binding [1] | binding (KDELR1-mCherry (human) [2]) | binding (KDELR1-mCherry (human) [3]) | other results |
| --- | --- | --- | --- | --- |
| NubG-HA-ACBD3 (from UniProt Q9H3P7 1-528) | binds | – | – | – |
| ArfGAP3 (endogenous) (from UniProt Q9NP61 1-516) | – | binds | binds | binding (myc-ACBD3 (human)): no binding |
| Arf1 (endogenous) (from UniProt P84077 1-181) | – | binds | binds | binding (ArfGAP3-myc (human)): no binding; binding (ArfGAP1-myc (human)): binds; binding (myc-ACBD3 (human)): no binding |
| nYFP-3xFLAG-ACBD3 (from UniProt Q9H3P7 1-528) | – | – | – | binding (KDELR1-myc-cYFP (human)): binds |
| FLAG-GOLD domain (from UniProt Q9H3P7 384-526) (domain or fragment) | – | – | binds | – |
| NubG-HA-ARFGAP3 (from UniProt Q9NP61 1-516) | binds | – | – | – |
| FLAG-ACBD3 FL (from UniProt Q9H3P7 1-528) | – | – | binds | – |

The next lines start with results.

| binding [1] | binding (KDELR1-mCherry (human) [2]) | binding (KDELR1-mCherry (human) [3]) | Substance | other results |
| --- | --- | --- | --- | --- |
| binds | – | – | NubG-HA-ARFGAP1 (from UniProt Q8N6T3 1-406) | – |
| – | binds | binds | ACBD3 (endogenous) (from UniProt Q9H3P7 1-528) | binding (PKA-RIIα-EGFP): binds; binding (ArfGAP3-myc (human)): no binding; binding (ArfGAP1-myc (human)): no binding |
| no binding | – | – | NubG-HA-ARFGAP2 (from UniProt Q8N6H7 1-521) | – |
| – | binds | binds | ArfGAP1 (endogenous) (from UniProt Q8N6T3 1-406) | binding (myc-ACBD3 (human)): no binding |
